# Source: the supplement of paper PMC8728848
# The other results are listed elsewhere or left out.
# B1: BT3172pd (Bacteroides thetaiotaomicron) (protein)
# chain: MLPLRAEHYYYKQISLKEGLPSNVRCILRDEQGFIWIGTKAGLGKFDGHQLKRYKHQANDPHSLLHNLIYQIAEDKQHNIWILTEKGIARYQQQSNNFTFPTDEEGNYITAYSFCLVPDGILFGGKDRIYKYSYKDSSLRLLQYFNANSFKITALSVWDSKTLLCCSRWTGLYLVDLQTGEHRRPPFDCGPEITSMITDSKNRIWIAPYSGGLRCYSRDGKLSASYTTHNSSLSNDIVLSLAEREEQLWIGTDGGGINILHPETGEISQLEYIPGRENYSLPANSILCLHNDYNNNVWAGSTCNGLISIREVSMKTYTDVVPGNDRGLSNGTVRSLYRQSPDSIWIGTDGGGINLFSPHTEKFTHYSSTWGDKVAFISGFTPGKLLISLFSKGVFVFNPATGEKQPFTIIDKETTTRLCNRGKSVNLYQNTPNTVLFLGDHIYQYHLKEKKFSTITEEEGKDIVGTLVPFDHQENLTYINDIKHIYELDDQTSRLKTVFECYTDTVISSVSHDEQGHFWIGSNFGLIHYDPVLKSRTLVPTNLFTEINMVLCDQKGKVWIGVDNMLFAYFIKEQKFVLFGESNGAIQNEYLPNARLVNEQGDAYIGGVKGMLRIDGQLLLNTSEMPELQLLDITINGESANHEWYNHPAKISVPWNSNISIRIMSREEDIFRQKIYRYQIEGLNNEYTESYNPELVIRSLLPGSYRIMASCTAKDGSWIPDQQVLELTVLPPWYRTHHHHHH
# What was measured:
# Test in all cases: glycan array binding signal (z-score within array); higher = stronger binding
# Conditions in all cases: glycan notation: IUPAC condensed, linker removed
# Neu5Ac(a2-8)Neu5Ac = target: Neu5Ac(a2-8)Neu5Ac
# In short: (§1)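 Glycan array data were curated from 3228 arrays in the Consortium for Functional Glycomics database and kept only where the protein sequence was available. Glycan names were converted to IUPAC-condensed notation, and columns mapping to the same glycan were averaged. The binding signal is a within-array Z-score, averaged across arrays of the same protein sequence at different concentrations or buffers and across linkers. Negative Z-scores can be read as non-binding.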
# [1] = target: Neu5Ac(a2-8)Neu5Ac(a2-3)Gal(b1-3)GalNAc(b1-4)[Neu5Ac(a2-3)]Gal(b1-4)Glc
# In short: as §1
# [2] = target: Neu5Ac(a2-8)Neu5Ac(a2-3)Gal(b1-3)GalNAc(b1-4)[Neu5Ac(a2-8)Neu5Ac(a2-3)]Gal(b1-4)Glc
# In short: as §1
# [3] = target: Neu5Ac(a2-8)Neu5Ac(a2-3)Gal(b1-4)Glc
# In short: as §1
# [4] = target: Neu5Ac(a2-8)Neu5Ac(a2-3)Gal(b1-4)GlcNAc
# In short: as §1
# [5] = target: Neu5Ac(a2-8)Neu5Ac(a2-3)[Gal(b1-3)GalNAc(b1-4)]Gal(b1-4)Glc
# In short: as §1
# [6] = target: Neu5Ac(a2-8)Neu5Ac(a2-3)[GalNAc(b1-4)]Gal(b1-4)Glc
# In short: as §1
# [7] = target: Neu5Ac(a2-8)Neu5Ac(a2-8)Neu5Ac
# In short: as §1
# [8] = target: Neu5Ac(a2-8)Neu5Ac(a2-8)Neu5Ac(a2-3)Gal(b1-4)Glc
# In short: as §1
# [9] = target: Neu5Ac(a2-8)Neu5Ac(a2-8)Neu5Ac(a2-3)[Gal(b1-3)GalNAc(b1-4)]Gal(b1-4)Glc
# In short: as §1
# [10] = target: Neu5Ac(a2-8)Neu5Ac(a2-8)Neu5Ac(a2-3)[GalNAc(b1-4)]Gal(b1-4)Glc
# In short: as §1
# [11] = target: Neu5Ac(a2-8)Neu5Ac(a2-8)Neu5Ac(a2-8)Neu5Ac(a2-3)[GalNAc(b1-4)]Gal(b1-4)Glc
# In short: as §1
# [12] = target: Neu5Ac(a2-8)Neu5Gc(a2-3)Gal(b1-4)GlcNAc
# In short: as §1
# [13] = target: Neu5Ac(b2-6)Gal(b1-4)GlcNAc
# In short: as §1
# Neu5Ac(b2-6)GalNAc = target: Neu5Ac(b2-6)GalNAc
# In short: as §1
# [14] = target: Neu5Ac9Ac(a2-3)Gal(b1-3)GlcNAc
# In short: as §1
# [15] = target: Neu5Ac9Ac(a2-3)Gal(b1-4)GlcNAc
# In short: as §1
# [16] = target: Neu5Ac9Ac(a2-6)Gal(b1-4)GlcNAc
# In short: as §1
# [17] = target: Neu5Gc(a2-3)Gal(b1-3)GlcNAc
# In short: as §1
# [18] = target: Neu5Gc(a2-3)Gal(b1-3)[Fuc(a1-4)]GlcNAc
# In short: as §1
# Neu5Gc(a2-3)Gal(b1-4)Glc = target: Neu5Gc(a2-3)Gal(b1-4)Glc
# In short: as §1
# [19] = target: Neu5Gc(a2-3)Gal(b1-4)GlcNAc
# In short: as §1
# [20] = target: Neu5Gc(a2-3)Gal(b1-4)GlcNAc(b1-3)Gal(b1-4)GlcNAc(b1-2)Man(a1-3)[Neu5Gc(a2-3)Gal(b1-4)GlcNAc(b1-3)Gal(b1-4)GlcNAc(b1-2)Man(a1-6)]Man(b1-4)GlcNAc(b1-4)GlcNAc
# In short: as §1
# [21] = target: Neu5Gc(a2-3)Gal(b1-4)[Fuc(a1-3)]GlcNAc
# In short: as §1
# [22] = target: Neu5Gc(a2-6)Gal(b1-4)GlcNAc
# In short: as §1
# Neu5Gc(a2-6)GalNAc = target: Neu5Gc(a2-6)GalNAc
# In short: as §1
# [23] = target: Neu5Gc(a2-8)Neu5Ac(a2-3)Gal(b1-4)GlcNAc
# In short: as §1
# [24] = target: Neu5Gc(a2-8)Neu5Gc(a2-3)Gal(b1-4)GlcNAc
# In short: as §1
# [25] = target: Neu5Gc(a2-8)Neu5Gc(a2-3)Gal(b1-4)GlcNAc(b1-3)Gal(b1-4)GlcNAc
# In short: as §1
# [26] = target: Neu5Gc(a2-8)Neu5Gc(a2-6)Gal(b1-4)GlcNAc
# In short: as §1
# [27] = target: Neu5Gc(b2-6)Gal(b1-4)GlcNAc
# In short: as §1
binder,measurement,setting,value
B1,glycan array binding signal (z-score),Neu5Ac(a2-8)Neu5Ac,0.482
same,glycan array binding signal (z-score),[1],-0.117
same,glycan array binding signal (z-score),[2],0.261
same,glycan array binding signal (z-score),[3],0.188
same,glycan array binding signal (z-score),[4],-0.788
same,glycan array binding signal (z-score),[5],-0.415
same,glycan array binding signal (z-score),[6],-0.552
same,glycan array binding signal (z-score),[7],0.136
same,glycan array binding signal (z-score),[8],-0.434
same,glycan array binding signal (z-score),[9],-0.223
same,glycan array binding signal (z-score),[10],-0.591
same,glycan array binding signal (z-score),[11],-0.918
same,glycan array binding signal (z-score),[12],0.121
same,glycan array binding signal (z-score),[13],-1.02
same,glycan array binding signal (z-score),Neu5Ac(b2-6)GalNAc,0.736
same,glycan array binding signal (z-score),[14],-0.414
same,glycan array binding signal (z-score),[15],-0.598
same,glycan array binding signal (z-score),[16],-0.178
same,glycan array binding signal (z-score),[17],-0.493
same,glycan array binding signal (z-score),[18],0.1
same,glycan array binding signal (z-score),Neu5Gc(a2-3)Gal(b1-4)Glc,-0.286
same,glycan array binding signal (z-score),[19],-0.212
same,glycan array binding signal (z-score),[20],-0.18
same,glycan array binding signal (z-score),[21],-0.183
same,glycan array binding signal (z-score),[22],0.172
same,glycan array binding signal (z-score),Neu5Gc(a2-6)GalNAc,-0.106
same,glycan array binding signal (z-score),[23],-0.537
same,glycan array binding signal (z-score),[24],-0.391
same,glycan array binding signal (z-score),[25],-0.102
same,glycan array binding signal (z-score),[26],-0.966
same,glycan array binding signal (z-score),[27],1.33
